Assay results as given in ChEMBL document CHEMBL4888484, “Replenishing the malaria drug discovery pipeline: Screening and hit evaluation of the MMV Hit Generation Library 1 (HGL1) against asexual blood stage Plasmodium falciparum ,using a nano luciferase reporter read-out” (2022).
Screen size: about 150,000 compounds; about 540 (0.36%) showed an effect of 50% or more. Some of the results follow.

Tested on: Plasmodium falciparum
Assay: Primary screen in NF54 nanoGlo assay, in single point, at 2uM, 72h; a lower Z score goes with more inhibition
Assay type: functional, Erythrocyte
Settings: timepoint 72 hour

Structure (SMILES) | % Inhibition | Z score
CCCCCOCC(=O)Nc1nc(C)nn1CC | -5% | 0.67
Cc1cccc(C)c1NC(=O)c1c(-c2ccccc2)c(-c2ccccc2)n[nH]c1=O | 3% | -0.39
CC(C)(C)n1cc(C(=O)N2CCc3cc(F)c(F)cc32)nn1 | -5% | 0.4
Cc1cnn(Cc2nnc(-c3ccccc3)o2)c(=O)c1 | -31% | 3.58
CC[C@@H](C(=O)N(CC)CCOc1ccc(C)cc1)N(C)CC | 0% | -0.03
Cc1c(C)n(C[C@@H](O)Cn2ccnc2C)c2c(Cl)cccc12 | -5% | 0.7
CCCn1cc(CNC(=O)c2cc(CC(C)C)no2)cn1 | -22% | 3.11
CO[C@H]1COCC[C@@H]1NC(=O)c1ccccc1Cc1ccc(C)c(F)c1 | 5% | -0.66
CCCc1noc(CN(C)C(=O)c2cc[nH]c2C)n1 | -10% | 1.54
C=CCCn1ccc(-c2cccc(-c3ccncc3C)c2)n1 | -11% | 1.42
COC(=O)CN(C(=O)c1cc(C(C)C)on1)c1cccc(F)c1 | 8% | -1.01
COc1ccc(C(=O)n2nc(Nc3ccccc3Cl)cc2Nc2ccccc2Cl)cc1 | 36% | -0.85
Cc1c(CN2CCC(CNC(=O)c3ccnn3C)CC2)cnn1C | 4% | -0.85
CCOC[C@@]12CCN(C(C)=O)C[C@@H]1CN(C(=O)c1ccoc1)C2 | -17% | 1.95
Cc1nn(C)c2nc(N3CCC(OCc4cccnc4)CC3)sc12 | -13% | 1.29
C[C@@H](Cn1cccn1)NC(=O)C1CCCCC1 | -5% | 0.8
CCc1nc(CNc2nc(-c3ccco3)nc3c2CCN(C)CC3)no1 | -6% | 0.9
Cc1cn2nc(NC[C@@H](CO)Cc3ccc(F)cc3)sc2n1 | -10% | 1.38
COCCNc1nc(CC(=O)N[C@@H]2C[C@H]2C2CCCCC2)cs1 | 4% | -0.73
CCOc1ccc([C@@H](CNS(=O)(=O)N2CCCC2)c2c[nH]c3ccccc23)cc1OC | -5% | 0.38
CCOCc1nc2c(c(NCc3cccnc3OCC)n1)CCNCC2 | -11% | 2.17
Cc1cccc(C)c1OC[C@@H](O)CN1C(=O)NC2(CCCC2)C1=O | -6% | 0.85

Structure (SMILES) | % Inhibition | Z score
Cc1ccc(C)c(NC(=O)[C@H]2CCn3ccnc3C2)c1 | -9% | 1.51
COCc1nc(C(=O)OCCN(C)c2ccccc2)cs1 | -14% | 1.82
CC1(c2cc(NC(=O)NC(CC3CCCO3)C(F)(F)F)no2)CCCC1 (stereo not given) | -6% | 1.21
CN(Cc1ccc(F)c(F)c1)c1nnc(C2CCN(c3ncccn3)CC2)n1C | -12% | 2.26
CCOC(=O)N1CCC(NC2CCCCC2C)CC1 (stereo not given) | -11% | 1.59
O=C(Cc1csc(-c2ccccc2)n1)N1C[C@H](O)CO1 | -17% | 2.91
CC(C)Oc1ccc(-c2nc(=O)c(CCC(=O)NCCN3CCCCC3)n[nH]2)cc1 | -1% | 0.21
CCc1ccc(S(=O)(=O)N(CCOC)c2ccncc2)s1 | -8% | 0.88
COC[C@H]1[C@H](NC(=O)Cc2nonc2C)[C@H]2CCO[C@H]21 | -11% | 1.15
CCC1CCN(C(=O)c2cn3c(n2)CC[C@H](C)C3)CC1 | -8% | 1.08
COc1cncc(C(NS(=O)(=O)c2cnn(C)c2)[C@H]2C[C@@H](O)C2)c1 (stereo not given in full) | -17% | 1.57
O=C(N[C@@H]1CCN(C(=O)CC2CCCCC2)C[C@@H]1CO)c1cccnc1 | 1% | -0.23
COc1ccc(C(=O)N2C[C@@H]3CN(C(C)=O)C[C@]3(C(=O)N3CCCC3)C2)c(C)c1 | -12% | 1.56
Cc1c(C(=O)N(C)C[C@H]2COc3ccccc3O2)cnn1C | -6% | 0.73
Cc1ccc(NC(=O)CC2CC3CCC2C3)c(Br)c1 (stereo not given) | 34% | -0.93
c1cncc(CNC[C@H]2CN(C3CC3)CCO2)c1 | -7% | 0.73
O=C(COc1ccc2c(c1)OCO2)Nc1nccs1 | -1% | 0.18
CC(C)C[C@H](NC(=O)c1cscn1)C(=O)Nc1cc[nH]n1 | -12% | 1.26
Cc1nc(C)c(F)c(NC2CCCC(CO)C2)n1 (stereo not given) | 4% | -0.58
COc1ccc(CNC(=O)CN2CCc3[nH]c4ccc(F)cc4c(=O)c3C2)cc1 | 6% | -0.72
CC(=O)Nc1ccnc(Cc2ccccc2)n1 | -8% | 1.29
CCOc1ccc(-c2nc(-c3ccc4c(c3)OCO4)cs2)cc1OC | -34% | 4.04

Structure (SMILES) | % Inhibition | Z score
COc1cc(C)ccc1NC(=O)N1CCC[C@H](CN2CCOCC2)C1 | 0% | 0
CC[C@@]1(C)CCCN(C(=O)c2cn3nccc3nc2C)C1 | -12% | 1.52
COc1ccc(-c2cc(-c3ccc(C)cc3)nc3sc(C(=O)Nc4ccc5c(c4)OCO5)c(N)c23)cc1 | 33% | -3.72
O=C(CCCc1ccccc1)Nc1cc(C2CC2)nn1-c1nc(-c2ccccc2)cc(=O)[nH]1 | 54% | -8.76
C[C@H]1CCCCN1C(=O)CN1CCN(c2nccn3cnnc23)CC1 | 36% | -0.74
CC(C)C(=O)NCC(=O)N1CCC[C@H](c2[nH]ncc2-c2ccccc2)C1 | -11% | 2.1
O=S(=O)(c1ccco1)N1CCCCCO1 | -11% | 2.03
CC(=O)c1c(F)cccc1NCC1(C(N)=O)CCOCC1 | 20% | -2.24
Cn1nc2c(c1CNC(=O)N1CCOCC1)CCC2 | 13% | -1.63
Cc1ccc(C(=O)N2CCC(n3cnnc3)CC2)n1C(F)F | -17% | 2.61
CCN(C)S(=O)(=O)N[C@H](CO)Cc1ccccc1 | -16% | 1.81
Cc1nc(C)n(CC2CCCCN2CC(O)COc2ccccc2)n1 (stereo not given) | -9% | 1.64
Cn1ccnc1-c1nccn1-c1ccc2c(c1)CCC2 | 12% | -1.62
CCN(CC)CCNC(=O)c1cccc(-c2ccc3[nH]ccc3c2)c1 | -10% | 1.29
Cc1nc(CN2CC(n3cccn3)C2)oc1C | -5% | 0.57
Cc1[nH]c2c(F)cccc2c1CC(=O)N[C@@H](Cc1ccc(O)cc1)C(=O)O | -11% | 1.49
COc1ccc(-c2nn(-c3nc(-c4cnn(C)c4)cc(C(F)(F)F)n3)c(-c3ccc(OC)cc3)c2C)cc1 | 11% | -1.65
CCc1c[nH]c2ncnc(N3CCN([C@@H]4CCNC(=O)CC4)CC3)c12 | -1% | 0.24
C[C@@H](CNC(=O)c1ccc2nc(-c3ccc(F)cc3)c(-c3ccc(F)cc3)nc2c1)c1ccccc1 | -3% | 0.42
CN1CCC(NC(=O)c2cnc(-c3ccc4c(c3)OCO4)nc2Nc2ccc(F)cc2)CC1 | 45% | -3.53
CCC(CC)C(=O)Nc1c(C)cc(C)cc1C | 7% | -0.94
O=C1CN(Cc2nc(CCc3ccccc3)nn2-c2ccccn2)CCN1 | 0% | -0.02

Structure (SMILES) | % Inhibition | Z score
CCC[C@H](C)N1Cc2cccc(NCc3c(C)noc3C)c2C1 | 3% | -0.51
CCNc1ccc(Cl)cc1C(=O)NCC(=O)N(C)CC | -10% | 1.62
Cc1cccc(NC(=O)NCCc2cn(C)c3ncccc23)c1C | -4% | 0.49
CC[C@H](C)C(=O)Nc1ccc(Oc2c(C)c(C(=O)O)nn2C)c(S(=O)(=O)NC(C)(C)C)c1 | -1% | 0.15
CCN1CC2(CCN(C(=O)c3oc(C)nc3C)CC2)CC1=O | -16% | 2.1
COc1cc(-c2nc(C(=O)NCCc3ccccn3)cs2)ccc1OCc1cccc(F)c1 | -14% | 1.83
CC1(O)CC(C(=O)NC2CCC(F)C2)C1 (stereo not given) | 2% | -0.28
CCCc1cncnc1N[C@H]1CCOC[C@@H]1Oc1ccccn1 | -10% | 1.38
CC(C)COCCNC(=O)N1CCCC2CN(C)CCC21 (stereo not given) | -4% | 0.48
COc1ccc(N2C(=O)N[C@@H]3C[C@]2(C)Oc2ccc(C)cc23)c(OC)c1 | -7% | 1.12
O=S1(=O)CCC(CNc2ncc(Br)cn2)CC1 | -12% | 1.66
Cc1ccc(-n2cnnc2)c(C(=O)N2CCN(C3CC3)C[C@H](C)C2)c1 | 5% | -0.79
Clc1ccc(Cl)c(OCCN2CCC[C@H](c3nncn3C3CC3)C2)c1 | -24% | 3.43
C[C@](O)(CCc1ccccc1)C(=O)NCCc1ncc[nH]1 | 32% | -4.62
CN(c1ccc(Br)cc1)c1ncnc2c1nc1n2CCCCC1 | -3% | 0.6
CCC(C)C(OC)C(=O)N1CC(=O)Nc2cnccc21 (stereo not given) | 6% | -1
COc1cccc([C@H](C)N2CCC(c3nc(-c4ccccn4)no3)CC2)c1 | -1% | 0.17
COc1ccccc1CC(=O)N1C[C@H]2CC[C@@H](C1)N(CC=C(C)C)C2=O | 3% | -0.49
CCC(C)(C)C1CCC2(CC1)C[C@@H]2c1nc(C2(OC)CCOCC2)no1 (stereo not given in full) | -3% | 0.55
